About 5,000 (1.2%) of roughly 410,000 compounds were called active. Inconclusive results, whose numbers are uncertain, are shown with a selection of clear calls. Calls follow the shape of the dose curve; as a rule, active = well fitted inhibition curve with a large enough effect; inconclusive = small, poorly fitted or top-dose-only effect; inactive = no such curve, though single readings can be large or run the other way. Where the call is inconclusive, the potency comes from a doubtful curve fit.
assay: qHTS for Inhibitors of TGF-b; settings: HepG2 CAGA-GFP TGF-b/SMAD3 reporter, GFP fluorescence, 18 h, TGF-beta stimulated, 500 pg/mL final; series mostly up to 46.1 µM; also: nearly all actives have a fitted effect of over 65% in size
Summary of the method: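 HEPG2 CAGA-GFP reporter cells (1000/well, DMEM with 1% FBS) received compounds, then recombinant TGF-beta at 500 pg/mL final for 18 hours at 37 degrees C. Per-cell GFP summed per well was normalised to unstimulated and stimulated DMSO controls before curve fitting.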
Potency is read from the fitted curve at half-maximal effect; tags tell the direction and shape of the fitted curve.

Compound	Potency
CCN(CC(=O)Nc1cccc(S(=O)(=O)N2CCCCC2)c1)Cc1ccccc1	inconclusive: 35.5 µM [inhibitor, single point]
COc1ccc(C(C(=O)NC(C)(C)C)N(Cc2ccc(F)cc2)C(=O)CCC(=O)Nc2cc(C)on2)cc1 (stereo not given)	inconclusive: 12.6 µM [inhibitor, single point]
COCCNC(=O)c1ccc2c(c1)N(Cc1c(F)cccc1Cl)C(=O)c1ccccc1S2	inconclusive: 35.5 µM [inhibitor, partial curve, poor fit]
Cc1noc(/C=C/c2ccco2)c1S(=O)(=O)N1CCC(C(=O)N2CCc3ccccc3C2)CC1	inactive
O=C(COC(=O)c1cc([N+](=O)[O-])ccc1N1CCOCC1)NCc1ccc(Cl)cc1Cl	inconclusive: 35.5 µM [inhibitor, single point]
Cc1ccc(SCC(Cc2ccccc2)N2CCN(CCc3ccccc3)CCC2=O)cc1 (stereo not given)	inconclusive: 3.16 µM [inhibitor, partial curve, poor fit]
CC1Cc2ccccc2N1C(=O)CNc1ccccc1N1CCCCC1 (stereo not given)	inconclusive: 0.316 µM [inhibitor, full curve, poor fit]
Cc1cccnc1CCNC(=O)c1ccc(OC2CCN(Cc3ccccn3)CC2)cc1	inactive
COc1cccc(CNC(=O)CCC2CCCN(Cc3cc4ccccc4o3)C2)c1 (stereo not given)	inconclusive: 35.5 µM [inhibitor, single point]
CN(C)CCNc1ccc2ncn3c4ccc(O)cc4c(=O)c1c23	inconclusive: 2 µM [inhibitor, partial curve, poor fit]
CCC(C(=O)N1CCN(c2ccc(OC)cc2)CC1)n1nc(C)n2c(cc3occc32)c1=O (stereo not given)	active: 10 µM
Nc1ccc(S(=O)(=O)NC2(C(F)(F)F)NC(=O)N(c3cccc(Cl)c3)C2=O)cc1 (stereo not given)	inconclusive: 35.5 µM [inhibitor, single point]
COC(C/C=C/C(=O)[C@@H](C)OCc1ccccc1)OC	inconclusive: 35.5 µM [inhibitor, single point]
COc1ccc(CC(=O)N[C@@H]2c3ccccc3CC[C@@H]2OCc2ccccc2)cc1	inconclusive: 35.5 µM [inhibitor, single point]
COc1ccc(C(=O)COC(=O)CCC(=O)c2cccs2)cc1	inconclusive: 5.62 µM [inhibitor, single point]
COc1ccc(C(=O)Nc2ccc(NC(=O)c3cccc(F)c3)cn2)cc1	inactive
CCC(c1nnnn1Cc1ccco1)N(Cc1cc2cc(OC)ccc2[nH]c1=O)C1CCCCC1 (stereo not given)	inconclusive: 14.1 µM [inhibitor, single point]
CN1C/C(=C/c2ccccc2[N+](=O)[O-])C(=O)/C(=C\c2ccccc2[N+](=O)[O-])C1	active: 3.16 µM
O=C(c1ccco1)N1CCN(c2ncnc3scc(-c4ccc(F)cc4)c23)CC1	active: 17.8 µM
COc1ccc(S(=O)(=O)N(C)CC(=O)Nc2ccccc2OC)cc1	inactive
Cc1cccc(N2CCN(C(=O)CSCc3c(C)noc3C)CC2)c1C	inactive
COc1cc(OC)cc(-c2nnc(NC(=O)CCS(=O)(=O)c3ccc(C)cc3)o2)c1	inconclusive: 35.5 µM [inhibitor, single point]

Compound	Potency
CCOC(=O)CC1COCCN1C(=O)c1ccc2oc(Cc3ccccc3)nc2c1 (stereo not given)	inactive
CCOC(=O)C(=CNNc1cccc(Cl)c1)C(=O)OCC	inconclusive: 25.1 µM [inhibitor, single point]
COc1ccc(CCNC(=O)Cn2nc(C)c3c(C)n(-c4ccc(C)cc4)nc3c2=O)c(OC)c1	inconclusive: 3.16 µM [inhibitor, full curve, poor fit]
Cc1c(Cl)cccc1NC(=O)Cn1cnc(S(=O)(=O)N2CCCC2)c1	inconclusive: 22.4 µM [inhibitor, single point]
O=C1CCCc2ccccc2N1Cc1ccc(Cl)cc1Cl	inconclusive: 17.8 µM [inhibitor, partial curve]
C[C@@H]1CN([C@@H](C)CO)C(=O)c2cc(Br)cnc2O[C@H]1CN(C)C(=O)CN1CCOCC1	inactive
COc1ccc(OC)c(NC(=O)CSC2=Nc3ccccc3C3=NC(CCC(=O)NCCc4ccccc4)C(=O)N23)c1 (stereo not given)	inactive
CCCC(=O)NC(c1ccc(Cl)cc1)c1ccc2cccnc2c1O (stereo not given)	inconclusive: 7.94 µM [inhibitor, partial curve]
Cc1nnc(NCc2ccc(F)cc2)c2c1nnn2Cc1ccccc1Cl	inactive
Cc1cc(C)c2c(CC(=O)Nc3c(C(=O)c4ccc(F)cc4)oc4ccccc34)coc2c1	inactive
COc1ccc(C)cc1-n1cnnn1	inactive
Cc1ccc2c(c1)CC(C)N2S(=O)(=O)c1nnc(NC(=O)CC(C)C)s1 (stereo not given)	inconclusive: 1.78 µM [inhibitor, partial curve, poor fit]
CC(C)c1ccc2occ(CC(=O)Nc3cccc(C(F)(F)F)c3)c2c1	inconclusive: 20 µM [inhibitor, single point]
CCN1CCc2c(sc(NC(=O)c3ccc(S(=O)(=O)N4CCCC4)cc3)c2C(=O)NC)C1	inconclusive: 35.5 µM [inhibitor, single point]
O=C(CNS(=O)(=O)c1ccccc1F)NNC(=O)c1ccc(Br)cc1	inactive
COc1ccc(CCN(C)Cc2nc(Cc3ccc(OC)c(OC)c3)no2)cc1OC	inconclusive: 5.62 µM [inhibitor, single point]
COC(=O)c1cc(S(=O)(=O)N2CCN(c3cc(C)ccc3C)CC2)c[nH]1	inconclusive: 28.2 µM [inhibitor, single point]
C[C@]12c3[nH]c4cc(-c5ccco5)ccc4c3CCN1C(=O)[C@@H](CC(=O)NCCc1ccccn1)C[C@@H]2C(=O)N1CCCCC1	inconclusive: 0.891 µM [inhibitor, full curve]
CC(C)c1nc2ccc(C(=O)NCCCN3CCN(c4ccc(F)cc4)CC3)cc2o1	inconclusive: 2.82 µM [inhibitor, single point]
C[C@H]1CN(S(=O)(=O)c2ccc3c(c2)OCCO3)CCN1S(=O)(=O)c1c(F)cccc1F	inconclusive: 3.98 µM [inhibitor, partial curve]
Cn1cnnc1SCc1ccc(C(=O)O)cc1	inconclusive: 6.31 µM [inhibitor, single point]
Cc1ccccc1Nc1ncnc(N)n1	inconclusive: 2.51 µM [inhibitor, partial curve, poor fit]

Compound	Potency
CCOC(=O)C1=C(CC)OC(N)=C(C#N)C1c1ccc(OC)c(OC)c1OC (stereo not given)	inconclusive: 5.62 µM [inhibitor, single point]
CN(C)c1ccc(C=C(C#N)C(=O)c2ccccc2)cc1Br	inconclusive: 35.5 µM [inhibitor, single point]
COc1ccc(-c2oc3ncnc(NCCN4CCOCC4)c3c2-c2ccc(OC)cc2)cc1	inconclusive: 14.1 µM [inhibitor, single point]
CCn1cc(CN2CCCC(C(=O)Nc3cccc(-n4cccn4)c3)C2)cn1 (stereo not given)	inactive
Cc1c(Cl)cnc(NC(=O)COC(=O)/C=C/c2ccco2)c1Cl	inactive
Cc1ccc(S(=O)(=O)N/N=C/c2ccc(OS(=O)(=O)c3ccc(C)c([N+](=O)[O-])c3)cc2)cc1	inconclusive: 14.1 µM [inhibitor, single point]
CCOc1ccc(C(=O)N2CCC(c3ccncc3)CC2)cc1	inconclusive: 8.91 µM [inhibitor, partial curve]
O=C(CCCOc1ccccc1)Nc1ccc(Cl)c(S(=O)(=O)N2CCOCC2)c1	inconclusive: 7.94 µM [inhibitor, partial curve, poor fit]
Cc1ccc(C)c(N2CCN(C(=O)Cn3c(C)c4cnn(-c5ccccc5)c(=O)c4c3C)CC2)c1	inconclusive: 10 µM [inhibitor, partial curve, poor fit]
CCCCC(=O)N1C/C=C\C(c2ccc(OC)cc2)N(Cc2ccc(F)cc2)C(=O)C1Cc1ccccc1 (stereo not given)	inconclusive: 17.8 µM [inhibitor, single point]
COc1cc(C(=O)NCC(=O)N2CCN(S(=O)(=O)c3cc(C)ccc3C)CC2)cc(OC)c1OC	inconclusive: 20 µM [inhibitor, single point]
Cn1cccc1-c1cc(C(=O)N/N=C/c2cc(Br)ccc2O)[nH]n1	inactive
COC(=O)c1ccccc1NC(=O)Cn1nc(C(F)(F)F)c2c1CCCC2	inconclusive: 17.8 µM [inhibitor, single point]
CCN(CC)S(=O)(=O)c1ccc(/C=C/C(=O)OCC#N)cc1	inactive
COc1ccc2cc(/C=N/NC(=O)CN(c3ccccc3C)S(=O)(=O)c3ccccc3)c(Cl)nc2c1	inactive
Cc1cn(C)c(CC(=O)N2CCN(c3ccc(F)cc3)CC2)c1C(=O)O	inactive
O=C1/C(=C/c2ccc(Cl)cc2)SC(=S)N1CCC(=O)N1CCCCC1CCO (stereo not given)	inconclusive: 22.4 µM [inhibitor, single point]
Cc1ccc(NS(=O)(=O)c2ccc3c(c2)NC(=O)CCS3)cc1F	inconclusive: 5.62 µM [inhibitor, partial curve]
O=C(O)CCN1C(=O)CC(N2C(=O)/C(=C/c3ccc(Cl)cc3)SC2=S)C1=O (stereo not given)	inconclusive: 35.5 µM [inhibitor, single point]
CN(C)c1ccc(CN(Cc2ccco2)C(=O)c2ccco2)cc1	inactive
O=C(O)CSc1ccc2nnc(-c3cccnc3)n2n1	inconclusive: 6.31 µM [inhibitor, single point]

From PubChem BioAssay AID588855 (National Center for Advancing Translational Sciences (NCATS), 2011)
